From PubChem BioAssay AID1460 (National Center for Advancing Translational Sciences (NCATS), 2008)
Among all 270,000 compounds or so, about 5,800 (2.1%) were called active. Inconclusive results, whose numbers are uncertain, are shown with a selection of clear calls. Calls follow the shape of the dose curve; as a rule, active = well fitted inhibition curve with a large enough effect; inconclusive = small, poorly fitted or top-dose-only effect; inactive = flat fitted curve, though single readings scatter. Where the call is inconclusive, the potency comes from a doubtful curve fit.

What follows are compounds tested against Microtubule-associated protein tau (Homo sapiens) (UniProt P10636) (assay: qHTS for Inhibitors of Tau Fibril Formation, Thioflavin T Binding). Conditions: recombinant tau K18 P301L (four-repeat tau fragment), heparin-induced fibrillization, ThT fluorescence; series mostly up to 57.4 µM.
Outline: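 Aggregation was driven by heparin (20 uM final) acting on recombinant tau […] bearing P301L in 100 mM sodium acetate pH 7; fibrils were detected with Thioflavin T.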
% is scaled to controls: 0 for no effect and ±100 for the full control effect; potency is read from the fitted curve at half-maximal effect; tags tell the direction and shape of the fitted curve.
Also: nearly all actives have a fitted effect of over 55% in size.

UniProt P10636, sequence (P10636 whole entry, looked up, the tested form may be a part): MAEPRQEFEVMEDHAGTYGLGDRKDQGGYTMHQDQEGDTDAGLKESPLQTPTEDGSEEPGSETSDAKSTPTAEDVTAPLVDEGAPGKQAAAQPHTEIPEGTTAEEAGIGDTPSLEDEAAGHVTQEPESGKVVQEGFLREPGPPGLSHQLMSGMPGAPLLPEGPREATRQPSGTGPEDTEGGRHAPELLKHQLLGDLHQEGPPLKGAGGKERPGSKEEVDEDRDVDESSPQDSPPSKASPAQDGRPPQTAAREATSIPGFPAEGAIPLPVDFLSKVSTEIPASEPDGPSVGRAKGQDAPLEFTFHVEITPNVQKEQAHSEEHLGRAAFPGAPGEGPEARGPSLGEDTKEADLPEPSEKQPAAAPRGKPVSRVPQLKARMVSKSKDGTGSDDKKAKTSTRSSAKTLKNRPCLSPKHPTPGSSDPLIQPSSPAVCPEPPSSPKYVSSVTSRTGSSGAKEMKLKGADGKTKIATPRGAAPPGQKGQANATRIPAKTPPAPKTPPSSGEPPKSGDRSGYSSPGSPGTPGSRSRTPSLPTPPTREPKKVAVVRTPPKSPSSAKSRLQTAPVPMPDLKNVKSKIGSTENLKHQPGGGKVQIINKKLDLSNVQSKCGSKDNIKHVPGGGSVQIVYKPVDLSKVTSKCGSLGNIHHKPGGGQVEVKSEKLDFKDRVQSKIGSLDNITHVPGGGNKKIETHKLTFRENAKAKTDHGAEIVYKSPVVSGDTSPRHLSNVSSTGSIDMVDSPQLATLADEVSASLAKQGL

SMILES	Potency	activity, negative = inhibition
Cc1ccccc1NC(=O)c1ccc2[nH]c(C)c(C)c2c1	inconclusive: 14.1 µM [inhibitor, partial curve]	–
CCn1cc(C(c2ccccc2)C(C(C)=O)[N+](=O)[O-])c2ccccc21 (centres undefined)	inconclusive: 22.4 µM [inhibitor, single point]	–
COc1ccc(C)cc1NC(=O)CSc1nnc(COc2ccc(Cl)cc2)n1Cc1ccco1	inconclusive: 12.6 µM [inhibitor, partial curve]	–
CC(C)COc1ccc(C(=O)N2C(=O)c3ccc(N)cc3C2=O)cc1	inconclusive: 2.51 µM [inhibitor, partial curve]	–
CCC(CC)c1nn2c(=O)cc(COc3ccc(NC(=O)c4ccccc4C)cc3)nc2s1	inconclusive: 0.447 µM [inhibitor, full curve]	–
COc1ccc(NC(=O)/C(C#N)=C\c2ccc(N3CCOCC3)o2)cc1	active: 12.6 µM	–
O=C(NC(=S)Nc1ccc2c(c1)OCCO2)c1ccccc1	inconclusive: 0.631 µM [inhibitor, full curve, poor fit]	–
O=C1C2C3C=CC(C4CC34)C2C(=O)N1/N=C/c1ccc(-c2ccc(F)cc2[N+](=O)[O-])o1 (centres undefined)	inconclusive: 15.8 µM [inhibitor, partial curve]	–
CCn1c(CC(=O)Nc2cccc(Cl)c2Cl)nnc1SCCOc1ccc(OC)cc1	inactive	–
COc1ccc(CCNC(=S)NC(=O)c2ccc(Br)cc2)cc1OC	inconclusive: 5.62 µM [inhibitor, partial curve]	–
O=C(O/N=C1\CCCc2ccccc21)c1cccs1	inconclusive: 15.8 µM [inhibitor, partial curve]	–
Cc1ccc(/C=C2/NC(=O)N(Cc3ccccc3F)C2=O)o1	inconclusive: 39.8 µM [inhibitor, single point]	–
COc1ccc(/C(=N\Nc2ccccc2C(=O)O)c2ccccc2)cc1	inconclusive: 17.8 µM [inhibitor, partial curve]	–
COc1ccc2nc(NC(=O)c3ccc(NS(=O)(=O)c4cccs4)cc3)sc2c1	inconclusive: 3.55 µM [activator, full curve]	–
CSc1ccccc1C(=O)Nc1ccccc1C(=O)NC(C)C	inactive	–
COc1ccccc1N1CCN(/N=C/c2ccc(O)c(O)c2)CC1	inconclusive: 12.6 µM [inhibitor, partial curve]	–
CC(C)c1cc(Br)ccc1OCCCN1C(=O)NC(C)(C)C1=O	inconclusive: 31.6 µM [inhibitor, single point]	–
CCOc1ccc(S(=O)(=O)N2CCN(c3ccccc3)CC2)c2cccnc12	inactive	–
Cc1ccc(-n2nnc(-c3nc(-c4cccs4)no3)c2N)cc1C	inactive	–
COc1ccc(-c2nc(CSc3nncn4c3cc3oc(C)cc34)c(C)o2)cc1	inconclusive: 14.1 µM [inhibitor, partial curve]	–
CC(O)CSc1nc2c(c(=O)[nH]c(=O)n2C)n1CC(O)COc1ccccc1 (centres undefined)	inactive	–
COc1cccc(NC(=O)Cn2c(=O)n(-c3cccc(OC)c3)c(=O)c3sc4ccccc4c32)c1	inactive	–
CCCCNC(=O)CCCN1C(=O)CCn2nc(-c3cccn3C)cc21	inactive	–
O=C1CCCC(O)=C1C(C#Cc1ccccc1)C1=C(O)CCCC1=O	inconclusive: 25.1 µM [inhibitor, partial curve]	–
CC(=O)Nc1ccc(N=Nc2ccccc2)cc1	active: 12.6 µM	–

SMILES	Potency	activity, negative = inhibition
COC(=O)CCC(=O)OC1(C)C(=O)C=C2C=C(C3CC3)N(c3ccc(CO)cc3)C=C2C1=O (centres undefined)	–	inactive: -9.56% [at 11.5 µM]
CC(=O)Nc1ccc(NC(=S)NC(=O)c2ccc([N+](=O)[O-])cc2)cc1	inconclusive: 12.6 µM [inhibitor, partial curve]	–
Cc1ccc(C(=O)Oc2ccc(C(=O)COC(=O)C3CC(=O)N(Cc4ccco4)C3)cc2)cc1 (centres undefined)	inconclusive: 28.2 µM [inhibitor, partial curve]	–
Cc1ccc(C(=O)C[n+]2ccc(Cc3ccccc3)cc2)cc1	inactive	–
CCCCCNc1nc(-c2ccccc2)cs1	inconclusive: 14.1 µM [inhibitor, partial curve]	–
O=C(CN1CCCCC1)Nc1ccc(NC(=O)c2ccc(Cl)cc2)cc1Cl	inactive	–
O=C(c1cc2nc(-c3ccco3)cc(C(F)(F)F)n2n1)N1CCc2ccccc2C1	inconclusive: 28.2 µM [inhibitor, partial curve]	–
Cc1ccc(-c2nnc(Cc3ccc([N+](=O)[O-])cc3)o2)cc1	inconclusive: 5.01 µM [inhibitor, partial curve]	–
Cc1cccc(/C=N/NC(=O)c2ccc(Br)cc2)c1	inactive	–
Cc1ccc(NC(=O)c2c([N+](=O)[O-])c(C(C)(C)C)nn2C)cc1	inactive	–
CCCC1Cc2c(sc(NC(=S)NC(=O)c3ccccc3)c2C#N)CO1 (centres undefined)	inconclusive: 2.24 µM [inhibitor, full curve]	–
COc1ccc(NCc2n[nH]c(=O)c3ccccc23)cc1	inconclusive: 17.8 µM [inhibitor, partial curve]	–
O=C(Nc1cc(SCCO)cc([N+](=O)[O-])c1)c1ccc(Br)o1	inconclusive: 17.8 µM [inhibitor, single point]	–
O=C(Nc1nccc(-c2cccs2)n1)c1ccccc1Cl	inactive	–
N#Cc1nc(Cc2ccccc2)oc1NCc1ccccc1	inactive	–
COc1cccc(OCCNc2cc(N3CCOCC3)ccc2[N+](=O)[O-])c1	active: 11.2 µM	–
Cc1ccc(C(=O)C[n+]2ccc(-c3nnc4n3CCC4)cc2)cc1	inconclusive: 2.51 µM [inhibitor, full curve]	–
COc1ccccc1N1CCN(C(=O)c2cc(-c3cccs3)on2)CC1	inconclusive: 31.6 µM [inhibitor, partial curve]	–
O=C(COc1ccc2c3c(c(=O)oc2c1)CCC3)c1ccc2c(c1)OCO2	inconclusive: 0.631 µM [inhibitor, full curve]	–
CC(Oc1cccc(Cl)c1)c1ccnc2nc(/N=C/N(C)C)nn12 (centres undefined)	inactive	–
O=C(NCc1ccccc1Cl)c1ccc2c(c1)N(Cc1ccccc1)C(=O)c1ccccc1S2	inactive	–
CCOC(=O)c1[nH]c2ccccc2c1NC(=O)c1c(F)cccc1F	inactive	–
CCCc1ccc(-c2c(C)sc(N)c2C#N)cc1	inconclusive: 15.8 µM [inhibitor, partial curve]	–
COc1cc(OC)cc(C(=O)NCCc2csc(-c3cccc(C)c3)n2)c1	inconclusive: 35.5 µM [inhibitor, partial curve]	–
N=c1sc2ccccc2n1-c1ccccc1	inactive	–

SMILES	Potency	activity, negative = inhibition
C=CCc1cc(C(=O)N2CCCCC2)ccc1O	inactive	–
CCc1ccc(NC(=O)C(=O)NCCc2sc(-c3ccc(OC)c(OC)c3)nc2C)cc1	inactive	–
CCN(CC)P1(=O)OC(c2cc(OC)c(OC)c(OC)c2)=Nc2c1c(C)nn2-c1ccccc1 (centres undefined)	inactive	–
COc1ccc(NC(=O)c2c(NCc3cccs3)sc3c2CCCCC3)cc1	inconclusive: 14.1 µM [inhibitor, partial curve]	–
O=C(NC1=NCCS1)C1CCCCC1	inactive	–
Oc1ccc(Nc2nc(-c3ccc(O)cc3)cs2)cc1	active: 6.31 µM	–
COCCCn1c(SCC(=O)NCc2ccco2)nc2sc3c(c2c1=O)CCC3	inconclusive: 11.2 µM [inhibitor, partial curve]	–
CCC(CC)C(=O)Nc1ccc(OCc2cc(=O)n3ccc(C)cc3n2)cc1	inactive	–
COC(=O)C1=C(C)N(C2CCCCC2)C(=O)/C1=C\c1cccs1	inconclusive: 10 µM [inhibitor, partial curve]	–
CC(C)N(Cc1ccccc1)C(=O)c1cc2ccc3cccnc3c2[nH]1	inconclusive: 14.1 µM [inhibitor, partial curve, poor fit]	–
O=C(c1ccc2c(c1)CCN2S(=O)(=O)c1ccc(Cl)cc1)N1CCN(c2ccccc2F)CC1	inconclusive: 20 µM [inhibitor, single point]	–
CCN(CC)S(=O)(=O)c1ccc(/C(O)=C(\C#N)c2nc3ccccc3n2C)cc1	inactive	–
COc1ccc(Nc2ncc(C(=O)N3CCN(c4ccc(OC)cc4)CC3)c3ccccc23)cc1	inconclusive: 17.8 µM [inhibitor, partial curve, poor fit]	–
Cc1cc2ncc(-c3ccc(Cl)cc3)c(N)n2n1	inactive	–
CCOc1ccccc1NC(=O)c1cc(CC(C)C)oc1C	inconclusive: 17.8 µM [inhibitor, partial curve]	–
CCCCCC/C(=N/O)c1ccccn1	inactive	–
CCC(C)(C)C1CCC(=NNC(=O)c2ccc(Br)o2)CC1 (centres undefined)	inconclusive: 15.8 µM [inhibitor, partial curve]	–
COc1ccc(C(=O)NCC(c2cccnc2)N2CCN(c3ccccc3OC)CC2)cc1 (centres undefined)	inconclusive: 10 µM [inhibitor, partial curve]	–
CC(C)=NNc1nc(-c2ccccc2)c(C)s1	inconclusive: 28.2 µM [inhibitor, single point]	–
COc1ccc(Br)cc1CNC(=O)CN1C(=O)CCCc2ccccc21	inactive	–
CC(C)(C)c1ccc(C(=O)Nc2nc3nc(-c4ccccc4)cc(=O)n3[nH]2)cc1	inconclusive: 35.5 µM [inhibitor, single point]	–
Cc1ccc(NC(=O)Cn2c(SCc3cccc(F)c3)nc3ccncc32)c(C)c1	inactive	–
CN(C)c1ccc(-c2nc3ccccc3n2C)cc1	inconclusive: 8.91 µM [inhibitor, partial curve]	–
CN(C)c1ccc(N=Nc2ccccc2C(=O)OCC(=O)N(C)C2CCCCC2)cc1	active: 7.94 µM	–
